Data taken from the supplement of paper PMC10126150.
Values marked as one replicate rest on one cluster of the flow cell; about a third of the high ones do not repeat.

Tested on: ATP
Test: switch fluorescence ratio, 500 uM ATP over buffer (Cy3 cluster intensity, sum of 5 cycles each) (fold (ratio)); higher = stronger signal-on switching upon ATP binding; sequences stand for … in TCGTCGGCAGCGTCAGATGTGTATAAGAGACAGTTTTTTTTTTTTTTTTTTTTTTTTT…TC
Conditions: aptamer strand: ATP DNA aptamer (quencher-CACCTGGGGGAGTATTGCGGAGGAAGG + anchor), 100 nM annealed; ATP concentration: 500 uM; one replicate
In short: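 Switching-strand clusters labelled with Cy3 on a modified Illumina MiSeq flow-cell were annealed to 100 nM quencher-labelled ATP aptamer, imaged in selection buffer, and re-imaged after 15 min with 500 uM ATP at 22 °C. This was done over five cycles with NaOH stripping and re-annealing in between. The fluorescence ratio is summed target-cycle over summed buffer-cycle Cy3 intensity per cluster, averaged per switch-domain sequence, excluding clusters outside 100-1000 RFU.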
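Further: ATP exposure 15 min at 22 °C before imaging.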

Sequence	switch fluorescence ratio
TCGATAGTCG	1.03
TGTGACACCC	1.14
ATCTGATTGT	0.974
TACTGTGTGC	0.975
CAGCCATTCC	1.75
ATCTGTAAG	1.04
CATCCCCCTT	1.05
CGATTCCAGT	1.01
TGACTCCCCT	1.98
TTGAAACAGC	0.991
ACGGGAACT	1.08
TCATACATCC	1
TAATTAAAGG	1
CTTCCGTATT	2.83
TATTCTGTCG	1.03
AGTAATTCTC	1.12
AAAGATTAGC	0.984
TACGGCTT	1.07
CGAAGCCTTC	2.12
CTTGAGCAGC	1.01
CTGCATGCAG	0.981
TTATTTGGT	0.997
GAAACTATCC	1.38
GACAGTGAGG	1.03

Sequence	switch fluorescence ratio
ACGGCGGCAA	0.985
AGAGGCCGGT	0.969
CGTTCGGTTA	1.05
CACATACGAC	1.46
GGTATCAC	1.04
CTGGGGTACC	1.01
AAGAAGCGG	1.05
CGTTCGGTGT	1.01
AATATCATTA	1.01
CGTTGCCCCT	0.96
AACAAGAGAA	1.05
CGATGAGTGT	0.981
GAGAGTTCCG	0.939
TATGAAGCGC	0.974
TTTGTATCT	0.986
AAGGTGTTTA	1.01
CCTATCTAAT	1
CTGGAGTC	0.99
TATATACTTG	1.06
TATAGAAATG	1.08
ATTTGATAAG	0.963
CCCACACTCT	1.07
TTTGTCGTCT	1.02
GAAGCCATTT	1.01

Sequence	switch fluorescence ratio
ATGCTCTTAC	1.11
TTGTTCATC	0.961
ACATCAAATC	1.04
AGTATGTTAA	1.03
GAAGTCTGAT	0.964
TATGAAGGAT	1.03
AGGGTTTGT	1.02
GCTGAAAATC	0.97
AACGGGTAAA	1.16
CTGTACGGGA	1.12
AACTGGGAGC	1.01
TCGTCCTTCT	0.998
GAGATCATT	0.987
ACATACTACT	1.27
TCGGCTGAG	0.982
TTGGATACCG	1
GAGGCACAGT	1
TCGCATCCGG	1.08
GGATCATTAG	0.986
CACTTATCC	0.987
TGGTTTGTTT	1.02
TGCGTGCACC	1.07
GGGGACGTGT	0.993
TAAATCGGAT	0.987

Sequence	switch fluorescence ratio
ATGACCGTGT	0.999
AGCAAGGAG	1.12
AGACCAGCCC	1.03
GCTTCAACAG	1.09
AGTTGTGGTC	0.999
ATCTGAATAA	0.952
TTTGGAACTT	1.01
CATACAGGGT	1.11
GGTGTTACAG	1.07
GACTATAGGG	0.986
AGTGGAAAAT	1.01
AGGCTAAGGA	1.05
ATAGCTTGAA	0.939
GCCCTATCCG	0.996
TCGTACCAAG	1.02
GAGGGTCGGA	0.964
CGATGCCCCC	1.21
TCATAGGGTA	0.989
AGTAGTGATG	0.975
GATAAGCGAA	1.04
GACAGATTTC	1.03
CCCGCTCTTT	1.1
AACACCTGCT	0.998
CGGCCACGGA	1.01

Sequence	switch fluorescence ratio
AGGAGAATGG	1.01
CAGTCTCTTC	1.02
TTGATGTTG	1.01
TCAATTAGTT	0.963
AAATTAGATC	1.02
CCGGCCACCT	1.06
AGGGTGTGTG	1.02
ACCGTCCAGA	1.02
TTTTATCGTC	1.01
AACGAAGCT	1.41
GCTTGATA	0.955
TAACTAGGT	1
ATACGGCCGT	1.02
TAGACTGCTT	1.01
GGGCTTAGTA	0.971
GAGTTAAAGG	1
CAACTCAAT	1.12
AAGTCGGAGG	0.99
AGCGGTATCC	1.05
TCTACCCATT	1.04
CAACCAGTTG	1.15
GAGTAGTGTG	0.957
CTTACAGGTC	0.999
TAGGTACGGG	1.04

Sequence	switch fluorescence ratio
ATCGTCGGGG	0.964
CACAGGAGGC	1.08
TGGCGTGAAC	0.996
CATAAGGGCG	1.04
AGGGAAGTAA	1.03
GAGTTCTGCT	1.02
GGCTACTAGG	1.04
CACAGTATTT	1.07
GACGTGCGTT	1.03
GTCGGTTCCC	0.977
GGCCCCTCTT	1.03
TTCTTTATTG	0.974
GAAAAGGTT	1.01
TCGTTGCGAC	1.01
GGTCGAGCGT	1.02
CATGCTGGGA	1.04
AGCGTATTGC	0.983
ACATTTGAGA	0.956
CAGCCCGCCG	1.03
CCATGACAGC	1
TCGCCGTACT	0.962
TAATGCAT	0.975
TTAATACCTG	1.04
CATGCATTTG	0.973

Sequence	switch fluorescence ratio
CTCTGTGCGG	1.09
GTTTGTGCTG	0.993
ATTTTTGAAA	0.969
ACAAGGATTT	1.01
TCGGATCCGT	0.998
CTAGCCAAGT	1
GAGCGTACCT	1.14
TATGAGTTTG	0.976
GAAGGTCTTT	0.956
TGCAAGACAC	2.03
CTGGGCGACA	1.02
CGAAGTCTTG	0.965
CCAGCTCAT	1.04
AGAGGCCAGT	0.978
AGTACGAACT	1.37
CCGGCAGCCT	1.54
TGAAAATCG	1.03
GGTCTAAACT	1.04
TAGCGGACAA	1.07
